Values marked as one replicate rest on one cluster of the flow cell; about a third of the high ones do not repeat.
Test system: ATP
Experiment: switch fluorescence ratio, 500 uM ATP over buffer (Cy3 cluster intensity, sum of 5 cycles each) (fold (ratio)); higher = stronger signal-on switching upon ATP binding; sequences stand for … in TCGTCGGCAGCGTCAGATGTGTATAAGAGACAGTTTTTTTTTTTTTTTTTTTTTTTTT…TC
Details: aptamer strand: ATP DNA aptamer (quencher-CACCTGGGGGAGTATTGCGGAGGAAGG + anchor), 100 nM annealed; ATP concentration: 500 uM; one replicate
Procedure, shortened: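 Cy3-labelled switching-strand clusters on a modified Illumina MiSeq flow-cell were annealed to 100 nM quencher-labelled ATP aptamer and imaged first in selection buffer, then after 15 min with 500 uM ATP at 22 °C. NaOH stripping and re-annealing separated each of five buffer/ATP cycles, and clusters outside 100-1000 RFU were excluded. The fluorescence ratio sums target-cycle Cy3 intensity over buffer-cycle Cy3 intensity per cluster and averages it per switch-domain sequence.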
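Also: ATP exposure 15 min at 22 °C before imaging.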

Row | Sequence | switch fluorescence ratio
1 | TGAATGTGCA | 0.997
2 | GGATACGTCG | 0.995
3 | GACGACATTA | 1.2
4 | CATTTTGCCT | 0.979
5 | GACTCAAGAG | 1.01
6 | GGAAACCGCA | 2.17
7 | TCGAATATAC | 2.95
8 | TGGCTTACTG | 1.05
9 | CAGTTACAAA | 1.04
10 | CCTAGGGGCT | 1.09
11 | ACGTTGTTGC | 1.01
12 | TATTACGCTT | 1.04
13 | AAGGCATTGT | 0.962
14 | GGGTACACAG | 0.996
15 | GATTTAAACG | 0.962
16 | TAGATTCGG | 0.949
17 | GTGGTGGTGA | 1.01
18 | CCCGGGGGAT | 1.07
19 | GGGTAAGCCA | 0.982
20 | AATGAGAGAT | 1.03
21 | CCTGGTACAA | 1.05
22 | TTGATTGAGT | 0.997
23 | TGTCCTTTTG | 1.03

Row | Sequence | switch fluorescence ratio
24 | GGAAAGTGGG | 0.996
25 | TTTCGGCCG | 1.16
26 | ATCGTTAGGC | 0.971
27 | AAGATTGTTC | 1.01
28 | ATTGGTTGAT | 0.988
29 | GTTCCAAGTG | 1.05
30 | CTGCTAAAAC | 1.38
31 | GGCAGATCAG | 0.993
32 | TATTCGCTCT | 1.01
33 | CGGTGACATC | 1
34 | GCCCTAATTT | 1.06
35 | GTCAACCTAT | 1.04
36 | GTTGGATTCT | 0.978
37 | GTCCTGAT | 0.965
38 | AAAGGATAGG | 0.962
39 | TTATCCGCG | 1.42
40 | GAACTCACG | 1.23
41 | GCGGAAGCAA | 1.12
42 | CGGTCGCCCC | 1.03
43 | TCGGTCAACG | 0.984
44 | TACGGGGTGA | 1.04
45 | CTCAGTCTCT | 1
46 | CGGTCGAGTG | 0.976

Row | Sequence | switch fluorescence ratio
47 | GGAAATTAAA | 0.996
48 | CTATGGAAAG | 1.03
49 | ATCATGTTTA | 0.971
50 | CCGTACCAGG | 4.98
51 | TCAGACCAGC | 1.07
52 | ATTTACCTGC | 1
53 | AATCGGAGGT | 1.04
54 | TCCGAATTAT | 0.977
55 | GGAGGAGGCT | 0.971
56 | TGTCACGTGC | 0.991
57 | CCACATCCGC | 1.51
58 | GCAGGTCGTC | 0.994
59 | GCAGGCTAGC | 0.936
60 | CCGTCTCACT | 1.02
61 | TGACTCTGCT | 1.15
62 | TGCGATCTTT | 1
63 | CGCACAACGG | 1.2
64 | TGTAATTAAA | 0.978
65 | TAAAAAAGA | 0.993
66 | ACTTGAGAAC | 1.01
67 | TAAGGCGTCA | 1.03
68 | TGTGGAGCTA | 1.11
69 | GGCGGCGTTG | 1

Row | Sequence | switch fluorescence ratio
70 | CCAGGTAGGC | 1.32
71 | GGATGAGGAA | 1.05
72 | TCAAGTTTTA | 1.02
73 | ACACGGATAA | 0.983
74 | ATAGTCTGAA | 1.02
75 | CTGAGACTTC | 1.01
76 | CGACATAAAA | 0.988
77 | CCACCGGCCG | 1.19
78 | GGTTACGTG | 1.05
79 | GGGTTATCCG | 1.07
80 | ATAGATTGGG | 0.971
81 | TAAGGACTAA | 1.02
82 | GGCTTTTACA | 0.973
83 | TCCACAGCTG | 1.07
84 | TCCCCTTTTC | 1.13
85 | GTGTGCATTG | 1.03
86 | TATATCAAGC | 0.998
87 | GGCAGACTCG | 1
88 | ATGTGACTAC | 0.995
89 | GGATGTTGAC | 0.963
90 | CGTGGCGGTC | 0.913
91 | GAACTCGCGT | 1.06
92 | TGGATGTAAG | 1.02

Row | Sequence | switch fluorescence ratio
93 | CAGCAATTAG | 3.7
94 | GCTGGGCATG | 1.01
95 | TTTACGCATG | 1.06
96 | TTGGCAAATT | 1.05
97 | TCGTTGCGGG | 1
98 | CGTTCGATTA | 0.994
99 | GCCGGGTAGC | 1.01
100 | CATTTCGAG | 0.98
101 | TTAACCCTCG | 1.06
102 | AACTTTCTCT | 1.04
103 | CATAGCTGGG | 0.988
104 | GGGTACCTTT | 1.02
105 | GCTTCTCTGA | 0.99
106 | CTGACGGTG | 1.05
107 | CGTCGAACAG | 0.996
108 | GCTATTTTAT | 0.954
109 | GCACCGTACC | 1.57
110 | CGGCAAGGAT | 1.11
111 | ACGATTGACC | 1.15
112 | GCTTATGTTT | 1
113 | GGGCTAGTCC | 0.977
114 | CGTGTGACGG | 1.09
115 | GACGCTCTGC | 1.14

Row | Sequence | switch fluorescence ratio
116 | GATACTAGTT | 0.986
117 | CCAGAATGAG | 1.02
118 | CTTTGCTAGC | 1.09
119 | GGATGCGGCG | 1.1
120 | ATAGCAGGAA | 1.07
121 | GTTAGGGTGC | 1.05
122 | CAGTAGGATA | 1.01
123 | TGGCAAAACT | 2.61
124 | CGTTGAGACA | 1
125 | ATTGAATCGT | 1.02
126 | TCTTCCGTAT | 1.68
127 | AGTCTCTAG | 0.983
128 | ACGGGTGAGG | 1.04
129 | ACAAGAGT | 1.01
130 | CGGGGTAAAC | 0.997
131 | TGTTAAAACT | 1.02
132 | CCTACCTGCC | 2.59
133 | GGTACAAAG | 1.04
134 | TGGTCACATC | 0.995
135 | CCTTAAGTTA | 1.04
136 | CTAGTAGGTG | 1.08
137 | AATGATCCTG | 0.993
138 | AGGCATCTTT | 0.965

Row | Sequence | switch fluorescence ratio
139 | GGAACTGAGT | 0.973
140 | CCGGGAGCGG | 1.07
141 | AGATACCGGT | 0.97
142 | TGACCACTA | 1.03
143 | TATGAATCTA | 0.982
144 | CGATCCCGTC | 0.991
145 | GCAGGTCGGT | 0.965
146 | TACTAGAACG | 1.08
147 | TAGTGGGGAT | 1.03
148 | TAGTTACTGC | 1.09
149 | GGGGGTACAG | 1.04
150 | GCCGATATCA | 1.04
151 | TGGTCCTGTG | 0.991
152 | ACAGGCTAGG | 0.978
153 | AGATCTCTAC | 0.957
154 | CCTAATAGTG | 0.996
155 | AGGAGAGTAG | 0.967
156 | AGATTGTTGT | 0.973
157 | CTCGTACTTC | 1.07

— the supplement of paper PMC10126150
